PubChem BioAssay AID1347073 (National Center for Advancing Translational Sciences (NCATS), 2019)
About 200 (0.44%) of roughly 45,000 compounds were called active. About 7% were inconclusive and are not listed. The call rests on the fitted dose curve; in most records, active means well fitted activation curve with a large enough effect; inconclusive means small, poorly fitted or top-dose-only effect; inactive means no such curve, though single readings can be large or run the other way. Some of the results follow.

assay: qHTS of TDP-43 Inhibitors: NCGC Sytravon Library Screen; conditions: yeast TDP-43 toxicity rescue, BacTiter-Glo growth, 24 h; series mostly up to 46.1 µM; growth rescue (activation): at the top concentration; further: 0% is about no effect; nearly all actives have a fitted effect of over 55% in size
In short: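 TDP-43-expressing yeast, pregrown in raffinose, seeded at OD600 0.02 in galactose medium with compound for 24 hr at 30 deg C. Growth read by BacTiter-Glo luminescence, so rescue of toxicity appears as activation.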

| Structure (SMILES) | growth rescue (activation) |
| --- | --- |
| COc1ccc(/C=N/N(C)c2cc(=O)n(C)c(=O)[nH]2)cc1OC | inactive: -4.45% |
| O=C(N/N=C/c1sc(=O)[nH]c1-[n+]1ccccc1)c1ccccc1[O-] | inactive: 9.2% |
| COc1cc2c(cc1OC)CN(C(=O)c1ccc(OC)c(S(=O)(=O)N3CCCC3)c1)CC2 | inactive: -35.2% |
| O=C(CNC(=O)C1CCCCC1)NNC(=O)c1ccccc1Br | inactive: -6.49% |
| CCOC(=O)C1CCN(C(=O)c2cc3cc(F)ccc3[nH]2)CC1 | inactive: 17.9% |
| Cc1ccc(SCCC(=O)N/N=C/c2ccccc2O)cc1 | inactive: 20.6% |
| COc1cccc(/C=C2\C=C(c3ccc(C)cc3)OC2=O)c1OC(C)=O | inactive: -29.2% |
| CCOC(=O)N1CCN(Cc2cn[nH]c2-c2ccc(-c3ccccc3)cc2)CC1 | inactive: -0.71% |
| O=C(NCC1CCCO1)C1CC(=O)N(c2ccccc2)C1 (stereo not drawn) | inactive: -1.62% |
| COC(=O)c1c(C)[nH]c(C(=O)COC(=O)Cn2cc(C(F)(F)F)ccc2=O)c1C | inactive: 7.46% |
| O=c1[nH]c(O)c(N=Nc2ccc(Cl)c(S(=O)(=O)Nc3ccccc3Cl)c2)c(=O)[nH]1 | inactive: 18.5% |
| COCCCNC(=S)N1CCN(S(C)(=O)=O)CC1 | inactive: -17.5% |
| COc1cccc(NC(=S)N(Cc2ccco2)C(C)c2ccco2)c1 (stereo not drawn) | inactive: 7.25% |
| CC(C)(C)NC(=O)COC(=O)c1ccc(NC(=O)CC#N)cc1 | inactive: -9.52% |
| Cn1c(CN2CCN(S(C)(=O)=O)CC2)nc2cc([N+](=O)[O-])ccc21 | inactive: -17.8% |
| CCCCOc1ccc(C(C)NC(=O)CCS(=O)(=O)Cc2ccc(Cl)cc2)cc1 (stereo not drawn) | inactive: -1.88% |
| CC1(C(=O)O)CC(C)(C(=O)O)CC(C)(C(=O)O)C1 (stereo not drawn) | inactive: 11.8% |
| COc1ccc(OCC(=O)N2CCN(S(=O)(=O)c3ccccc3[N+](=O)[O-])CC2)cc1 | inactive: 4.69% |
| O=C(c1ccc(-n2cncn2)c2ccoc12)N1CCOCC1 | inactive: 1.22% |
| Cc1ccc2c(c1)N(CC(=O)NCCCN1CCCC1)C(=O)CO2 | inactive: 4.81% |
| COCCNC(=O)c1cc2c(s1)-c1ccc(Cl)cc1SC2 | inactive: 31.1% |
| COc1cccc(C(=O)Nc2ccc(C(=O)c3ccncc3)cc2)c1 | inactive: 6.2% |
| Oc1c(Cl)cc(Cl)c2c1NCCC2 | inactive: 1.98% |
| CCNC(=O)C1(C)CCN(C(=O)c2ccc(C(F)(F)F)cc2)C1 (stereo not drawn) | inactive: 2.84% |
| CCc1ccccc1NC(=O)CSc1nc2[nH]c(=O)cc(O)c2s1 | inactive: -7.99% |
| COc1cccc(-n2nnnc2SCC(=O)Nc2ccc(NC(C)=O)cc2)c1 | inactive: -9.32% |
| CC(C(=O)N(C)Cc1cccc(F)c1)N1CCN(S(=O)(=O)c2ccc3c(c2)OCCCO3)CC1 (stereo not drawn) | inactive: 18.6% |

| Structure (SMILES) | growth rescue (activation) |
| --- | --- |
| CC(=O)Nc1ccc(NC(=O)CN(c2cccc(C(C)=O)c2)S(C)(=O)=O)cc1 | inactive: -2.76% |
| C/C(=N\OCC(=O)NC12CC3CC(CC(C3)C1)C2)c1cc2ccccc2o1 | inactive: 35.5% |
| O=C(CSc1nc2c(c(=O)[nH]1)CCC2)Nc1ccc(F)cc1 | inactive: 14% |
| CC(=O)N1CCN(CC(=O)Nc2ccccc2Sc2ccccc2)CC1 | inactive: -22.4% |
| O=[N+]([O-])c1ccc2nc(NS(=O)(=O)c3ccc(Cl)cc3)sc2c1 | inactive: -1.79% |
| CCCN(Cc1nnc(-c2ccccc2Cl)o1)C(=O)c1cc([N+](=O)[O-])cc([N+](=O)[O-])c1 | inactive: -4.79% |
| Cc1ccc(C(=O)OCC(=O)NCc2ccc3c(c2)OCO3)o1 | inactive: 3.94% |
| COCCNC(=S)N/N=C(\C)c1cccc(C(F)(F)F)c1 | inactive: -5.57% |
| O=C(/C(Br)=C/Nc1cc(Cl)ccc1Cl)C(F)(F)F | inactive: 8.62% |
| CC(=O)Nc1ccc(NC(=O)C(C)OC(=O)C2CCN(S(=O)(=O)c3cccs3)CC2)cc1 (stereo not drawn) | inactive: 38% |
| O=C(c1ccco1)N1CCC(c2nc3c(nnn3Cc3ccccc3Cl)c(=O)[nH]2)CC1 | inactive: 16.3% |
| CCc1nc2c(OCc3cc(Cl)cc(Cl)c3)cccn2c1N(C)C(=O)CC(C)C | inactive: -25.2% |
| CCCCS(=O)(=O)NC1=NCN(CCOC(=O)c2ccccc2)CN1 | inactive: 15% |
| COCCSc1nnc(NC(=O)C2CC(=O)N(C3CCCC3)C2)s1 (stereo not drawn) | inactive: 11.4% |
| CCN(Cc1ccncc1)Cc1nc(-c2ccc(C(=O)OC)cc2)no1 | inactive: 22.6% |
| CCn1nc(C)c(CN2CCN(Cc3ccc(OC)c(C)c3C)C(CCO)C2)c1C (stereo not drawn) | inactive: 8.22% |
| CCc1nc2c(OCCOC)cccn2c1N(C)C(=O)Nc1ccccc1OC | inactive: 19.7% |
| COCCOC(=O)c1c(C)oc2ccc(NS(=O)(=O)c3cccs3)cc12 | inactive: 19.3% |
| CC(C)NC(=S)N/N=C/c1ccc2c(c1)OCCO2 | inactive: 11.4% |
| Cc1nc(SCc2ccccc2)c2oc3ccccc3c2n1 | inactive: -2.31% |
| Cc1cccc(NC(=S)N2CCN(c3ccccc3)CC2)c1 | inactive: -10.1% |
| CC1=NN2C(=N)/C(=C\c3cc(C)n(Cc4ccccc4)c3C)C(=O)N=C2S1 | inactive: -4.23% |
| Cc1ccc(C)c(NC(=O)N2CCc3cc(S(=O)(=O)N4CCC(C)CC4)ccc32)c1 | inactive: -3.64% |
| COc1cc(/C=N/NC(=O)CCC(=O)NC2CCCCC2)ccc1C | inactive: 9.3% |
| Cc1ccsc1CN(C(=O)c1ccc(Br)cc1)C1CCS(=O)(=O)C1 (stereo not drawn) | inactive: 13.9% |
| O=C(/C=C/c1cccs1)N1CCOCC1 | inactive: -10.2% |
